# In PubChem BioAssay (NCI):
#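 Protocol summary: plate cells (96-well), add compound at 5 concentrations, incubate 48 h, interpolate endpoints linearly. TGI: total growth inhibition.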 For part of its entries the source gives two or more results. They are shown here; other results are not. There may be further records. The tests behind the records often covered other concentration ranges, which the source does not state; a value can be the end of its range.
# Tested on: MDA-MB-468 breast
# Assay: growth of human tumour cells (NCI), 48 h
smiles,measurement,value
CN[C@H]1C=C[C@@H]2/C=C(C)/C=C/[C@@H](C)[C@H]([C@H](C)[C@H](O)[C@@H](C)NC(C)=O)OC(=O)/C=C/C=C(C)\C=C\[C@]2(C)C1,TGI,148 nM and > 49 µM
